Experimental data as given in paper PMC5398727, “GP73 represses host innate immune response to promote virus replication by facilitating MAVS and TRAF6 degradation” (PLoS Pathogens, 2017).
No constants are given. Whether binding was seen depends on the method and setting. Binding seen in cells or lysates may run through a third protein. Some results given as binding are weak or reduced against the parent protein; the word gives no strength. For some of these results: Where a sequence is shown, tags or fusion partners need not be part of it.

Amino acid sequences for entries named in this document (tags omitted).
UniProt Q7Z434: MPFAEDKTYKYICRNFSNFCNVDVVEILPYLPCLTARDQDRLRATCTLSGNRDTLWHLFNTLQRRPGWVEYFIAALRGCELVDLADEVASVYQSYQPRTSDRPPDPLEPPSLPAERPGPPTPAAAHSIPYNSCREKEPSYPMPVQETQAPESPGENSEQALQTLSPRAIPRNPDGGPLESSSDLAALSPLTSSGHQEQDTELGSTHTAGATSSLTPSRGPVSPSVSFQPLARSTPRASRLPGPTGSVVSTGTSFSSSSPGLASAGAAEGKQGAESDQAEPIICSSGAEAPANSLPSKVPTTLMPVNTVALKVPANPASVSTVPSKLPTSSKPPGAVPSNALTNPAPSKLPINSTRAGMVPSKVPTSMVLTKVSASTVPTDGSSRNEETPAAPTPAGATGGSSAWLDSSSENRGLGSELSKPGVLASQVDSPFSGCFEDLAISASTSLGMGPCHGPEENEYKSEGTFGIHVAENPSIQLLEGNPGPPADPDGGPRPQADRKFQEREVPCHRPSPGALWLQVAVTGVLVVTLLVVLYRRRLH

Tests used:
GST-GP73 (aa36-401) = biological target: T1, GST-GP73 (aa36-401) (human, UniProt Q8NBJ4 36-401); assay: pull-down; lysates of HEK293 transfected with Flag-MAVS or Flag-TRAF6 (20 mM Tris-Cl, 200 mM NaCl, 1 mM EDTA, 0.5% NP-40, pH 7.5) with 10 μg purified GST or 20 μg GST-GP73 on glutathione Sepharose overnight at 4°C; WB (Fig 3F); only the target purified
T1 construct: also called recombinant GST-GP73; GST-fused GP73; source: E. coli BL21, purified (glutathione Sepharose 4B)
T1 sequence (looked up): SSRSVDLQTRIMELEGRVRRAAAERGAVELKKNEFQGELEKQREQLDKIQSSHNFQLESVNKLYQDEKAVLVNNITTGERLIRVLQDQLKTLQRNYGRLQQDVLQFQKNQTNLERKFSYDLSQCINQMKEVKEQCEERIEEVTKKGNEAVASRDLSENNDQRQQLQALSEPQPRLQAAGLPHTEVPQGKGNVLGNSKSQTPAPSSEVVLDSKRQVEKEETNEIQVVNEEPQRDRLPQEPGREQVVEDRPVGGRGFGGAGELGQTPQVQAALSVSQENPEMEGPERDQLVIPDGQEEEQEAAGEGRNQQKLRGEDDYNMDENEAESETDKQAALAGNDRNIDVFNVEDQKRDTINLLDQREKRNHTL

TRAF6-aa 289–522 = biological target: T2, TRAF6-aa 289–522 (UniProt Q9Y4K3); assay: co-IP; HEK293 co-transfected with GP73 (1 μg) and TRAF6 or its deletion mutants (3 μg) for 24 h; immunoprecipitation and WB with indicated antibodies (Fig 4A)
T2 sequence: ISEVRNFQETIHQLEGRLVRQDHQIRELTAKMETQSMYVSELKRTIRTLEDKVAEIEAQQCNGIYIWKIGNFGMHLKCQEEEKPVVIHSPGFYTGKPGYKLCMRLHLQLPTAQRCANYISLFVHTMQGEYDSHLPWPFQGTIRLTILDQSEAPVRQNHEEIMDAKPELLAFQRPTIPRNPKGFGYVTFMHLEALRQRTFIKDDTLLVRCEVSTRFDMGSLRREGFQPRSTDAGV

TRAF6-aa 358–522 = biological target: T3, TRAF6-aa 358–522 (UniProt Q9Y4K3); assay: as above
T3 sequence: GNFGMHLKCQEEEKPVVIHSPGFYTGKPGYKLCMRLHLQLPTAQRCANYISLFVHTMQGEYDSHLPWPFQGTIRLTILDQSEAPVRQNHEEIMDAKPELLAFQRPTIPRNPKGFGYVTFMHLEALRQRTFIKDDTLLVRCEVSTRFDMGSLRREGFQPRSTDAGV

TRAF6-aa 1–357 = biological target: T4, TRAF6-aa 1–357 (UniProt Q9Y4K3); assay: as above
T4 sequence: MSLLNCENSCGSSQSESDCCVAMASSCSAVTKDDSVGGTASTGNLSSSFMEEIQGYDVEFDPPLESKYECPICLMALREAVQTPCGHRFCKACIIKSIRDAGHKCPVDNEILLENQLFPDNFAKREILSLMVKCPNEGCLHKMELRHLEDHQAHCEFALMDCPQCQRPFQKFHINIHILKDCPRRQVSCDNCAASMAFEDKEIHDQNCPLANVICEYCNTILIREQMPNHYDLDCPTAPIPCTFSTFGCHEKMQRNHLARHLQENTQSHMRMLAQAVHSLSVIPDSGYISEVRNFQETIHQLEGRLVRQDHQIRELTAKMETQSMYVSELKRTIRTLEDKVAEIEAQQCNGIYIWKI

TRAF6-aa 1–288 = biological target: T5, TRAF6-aa 1–288 (UniProt Q9Y4K3); assay: as above
T5 sequence: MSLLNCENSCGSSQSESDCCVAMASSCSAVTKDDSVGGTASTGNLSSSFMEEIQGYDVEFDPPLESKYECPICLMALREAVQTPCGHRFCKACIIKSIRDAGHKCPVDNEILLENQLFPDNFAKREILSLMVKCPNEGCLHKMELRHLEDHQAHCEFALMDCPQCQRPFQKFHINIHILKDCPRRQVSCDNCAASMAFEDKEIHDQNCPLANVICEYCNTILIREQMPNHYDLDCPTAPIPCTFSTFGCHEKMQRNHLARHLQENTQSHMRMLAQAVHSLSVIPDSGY

[1] = biological target: endogenous MAVS (HEK293) (human (endogenous in HEK293)) (UniProt Q7Z434); assay: co-IP; endogenous proteins, HEK293 cells infected with SeV for indicated times; immunoprecipitation and WB with antibodies against indicated proteins (Fig 3D)
[2] = biological target: Flag-MAVS (mitochondrial antiviral signaling protein), full length (UniProt Q7Z434); assay: co-IP; HEK293 co-transfected with GP73 plasmid and Flag-tagged (or indicated) plasmids for 24 h; lysis in 50 mM Tris-HCl, 150 mM NaCl, 1% Triton X-100, 1 mM EDTA, 10% glycerol, pH 7.4; immunoprecipitated with anti-Flag (or IgG), washed with 300 mM NaCl buffer, WB; Fig 3B, 3C, 4C-F, S4B (for Fig 4C-F the antibodies are only 'indicated')

With “Flag-MAVS (mitochondrial antiviral signaling protein), full length (from UniProt Q7Z434 1-540)” the binding (GST-GP73 (aa36-401)) was “binds”.

B1: GP73 (plasmid of Fig 4A, tag not stated) (protein, UniProt Q8NBJ4 1-401)
chain: MMGLGNGRRSMKSPPLVLAALVACIIVLGFNYWIASSRSVDLQTRIMELEGRVRRAAAERGAVELKKNEFQGELEKQREQLDKIQSSHNFQLESVNKLYQDEKAVLVNNITTGERLIRVLQDQLKTLQRNYGRLQQDVLQFQKNQTNLERKFSYDLSQCINQMKEVKEQCEERIEEVTKKGNEAVASRDLSENNDQRQQLQALSEPQPRLQAAGLPHTEVPQGKGNVLGNSKSQTPAPSSEVVLDSKRQVEKEETNEIQVVNEEPQRDRLPQEPGREQVVEDRPVGGRGFGGAGELGQTPQVQAALSVSQENPEMEGPERDQLVIPDGQEEEQEAAGEGRNQQKLRGEDDYNMDENEAESETDKQAALAGNDRNIDVFNVEDQKRDTINLLDQREKRNHTL
B1 was tested, and the binding (TRAF6-aa 289–522) was “binds”, the binding (TRAF6-aa 358–522) was “no binding” and the binding (TRAF6-aa 1–357) was “binds”. The binding (TRAF6-aa 1–288) was “no binding”.

B2: endogenous GP73 (HEK293) (protein, UniProt Q8NBJ4 1-401)
chain: MMGLGNGRRSMKSPPLVLAALVACIIVLGFNYWIASSRSVDLQTRIMELEGRVRRAAAERGAVELKKNEFQGELEKQREQLDKIQSSHNFQLESVNKLYQDEKAVLVNNITTGERLIRVLQDQLKTLQRNYGRLQQDVLQFQKNQTNLERKFSYDLSQCINQMKEVKEQCEERIEEVTKKGNEAVASRDLSENNDQRQQLQALSEPQPRLQAAGLPHTEVPQGKGNVLGNSKSQTPAPSSEVVLDSKRQVEKEETNEIQVVNEEPQRDRLPQEPGREQVVEDRPVGGRGFGGAGELGQTPQVQAALSVSQENPEMEGPERDQLVIPDGQEEEQEAAGEGRNQQKLRGEDDYNMDENEAESETDKQAALAGNDRNIDVFNVEDQKRDTINLLDQREKRNHTL
For B2, the binding [1] was “binds”.

B3: HA-GP73-Myc (protein, UniProt Q8NBJ4 1-401)
chain: MMGLGNGRRSMKSPPLVLAALVACIIVLGFNYWIASSRSVDLQTRIMELEGRVRRAAAERGAVELKKNEFQGELEKQREQLDKIQSSHNFQLESVNKLYQDEKAVLVNNITTGERLIRVLQDQLKTLQRNYGRLQQDVLQFQKNQTNLERKFSYDLSQCINQMKEVKEQCEERIEEVTKKGNEAVASRDLSENNDQRQQLQALSEPQPRLQAAGLPHTEVPQGKGNVLGNSKSQTPAPSSEVVLDSKRQVEKEETNEIQVVNEEPQRDRLPQEPGREQVVEDRPVGGRGFGGAGELGQTPQVQAALSVSQENPEMEGPERDQLVIPDGQEEEQEAAGEGRNQQKLRGEDDYNMDENEAESETDKQAALAGNDRNIDVFNVEDQKRDTINLLDQREKRNHTL
In the case of B3, the binding [2] is reported as “binds”.
